This note sets out measurements from patent US20140120091A1 (University of Washington, published 2014).

The target of experiment [1] is T1, human CD40 ligand (CD40L, CD154) expressed on human Jurkat cells (human, UniProt P29965 1-261).
T1 construct: whole, on cells; also called CD40L on Jurkat cells; CD154 (CD40L) expressed on the surface of Jurkat cells
T1 sequence (looked up): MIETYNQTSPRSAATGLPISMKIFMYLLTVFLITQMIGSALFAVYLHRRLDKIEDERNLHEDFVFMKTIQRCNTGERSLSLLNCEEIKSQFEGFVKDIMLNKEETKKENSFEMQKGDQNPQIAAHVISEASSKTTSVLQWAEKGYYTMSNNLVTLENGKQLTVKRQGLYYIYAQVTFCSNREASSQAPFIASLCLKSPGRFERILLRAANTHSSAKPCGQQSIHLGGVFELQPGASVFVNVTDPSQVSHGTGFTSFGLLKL
As to the kind of experiment: flow cytometry, COS supernatants on Jurkat cells, AF647 goat anti-human IgG detection. A general note: Flow cytometry measures light scatter and fluorescence of single cells or particles in a stream.

Experiment [2] deals with T2, recombinant human CD40L (Peprotech, Catalog #310-02) (human, UniProt P29965 113-261).
T2 construct: Bought reagent; also called rCD40L; immobilized CD40L
T2 sequence (looked up): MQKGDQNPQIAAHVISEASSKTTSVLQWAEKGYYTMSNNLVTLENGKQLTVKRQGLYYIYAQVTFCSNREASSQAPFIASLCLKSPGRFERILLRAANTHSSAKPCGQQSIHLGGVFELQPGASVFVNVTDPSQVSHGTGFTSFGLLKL
As to the kind of experiment: CD40L antigen binding ELISA normalised to IgG sandwich ELISA, COS supernatants. As for the experimental part: (§1) Coated plates were washed twice in wash buffer: (PBS/0.05% Tween-20/0.01% Kathon), and blocked overnight at 4° C. in 200 ul/well PBS/2.5% BSA. Blocked plates were washed three times in wash buffer, and serial dilutions of each culture supernatant in (D-PBS, 0.2% BSA) added to successive wells in each plate: (20×, 40×, 80×, and 160× of each supernatant). Supernatant dilutions were incubated overnight at 4° C. Plates were washed three times in wash buffer, then incubated with HRP (horseradish peroxidase) conjugated goat anti-human IgG (Fc specific) (Catalog #109-036-008, Jackson Immunoresearch, West Grove, Pa.) at a 1:7,500 dilution in PBS for 1-2 hours at room temperature. Plates were washed 4-5 times in wash buffer, then 80 ul/well TMB Sureblue peroxidase substrate was added (Catalog #52-00-02, KPL Laboratories, Gaithersburg, Md.). Color was allowed to develop for 5-15 minutes, and reactions stopped by addition of 80 ul/well 1 N HCL. Plates were read using a Biotek SYNERGY® 2 (Biotek Instruments, Winooski, Vt.) plate reader at […], and data analyzed with Gen5 v2 software.
(In general: In an ELISA, binding on a coated surface is turned into a signal by an enzyme label.)

Experiment [3] addresses T2, recombinant human CD40L (Peprotech, …). In words: CD40L antigen binding ELISA, COS supernatants (FIG. 29). As for the experimental part: as §1

B1: CD40 EC-Ig fusion protein, mutant E64S (Fc fusion)
chain: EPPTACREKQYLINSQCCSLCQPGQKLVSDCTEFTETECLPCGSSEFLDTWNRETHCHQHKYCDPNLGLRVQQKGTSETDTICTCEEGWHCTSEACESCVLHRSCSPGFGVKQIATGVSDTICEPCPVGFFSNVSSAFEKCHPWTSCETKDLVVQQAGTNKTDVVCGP
notes: COS7 culture supernatant; not shown: human IgG Fc tail
Turning to B1, the binding result in experiment [1] is listed as “binds”.

B2: CD40 EC-Ig fusion protein, mutant E64Y (Fc fusion)
chain: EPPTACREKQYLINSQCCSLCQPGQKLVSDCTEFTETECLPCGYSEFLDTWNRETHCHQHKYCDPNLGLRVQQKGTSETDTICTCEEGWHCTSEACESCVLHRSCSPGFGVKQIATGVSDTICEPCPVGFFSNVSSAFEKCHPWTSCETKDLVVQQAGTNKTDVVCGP
notes: as for B1
Take B2: the binding result in experiment [2] and in experiment [1] was “binds” in each case.

B3: CD40 EC-Ig fusion protein, mutant E64Y E66T (Fc fusion)
chain: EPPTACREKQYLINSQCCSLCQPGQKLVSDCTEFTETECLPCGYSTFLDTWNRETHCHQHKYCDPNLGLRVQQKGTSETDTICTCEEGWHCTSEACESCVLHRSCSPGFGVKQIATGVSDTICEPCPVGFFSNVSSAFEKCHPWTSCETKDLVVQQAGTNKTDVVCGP
notes: COS7 culture supernatant; also called E64Y E66T double substitution mutant; not shown: human IgG Fc tail
Regarding B3, in experiment [2], the binding result is “binds”.

B4: CD40 EC-Ig fusion protein, mutant T112Y (Fc fusion)
chain: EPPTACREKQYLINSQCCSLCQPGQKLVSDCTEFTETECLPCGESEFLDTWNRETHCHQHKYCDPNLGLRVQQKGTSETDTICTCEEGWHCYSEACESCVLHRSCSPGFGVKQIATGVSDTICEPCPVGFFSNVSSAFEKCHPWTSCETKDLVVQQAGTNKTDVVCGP
notes: as for B1
As for B4, in experiment [2], the binding result was “binds”.

B5: CD40 EC-Ig fusion protein, mutant T112S (Fc fusion)
chain: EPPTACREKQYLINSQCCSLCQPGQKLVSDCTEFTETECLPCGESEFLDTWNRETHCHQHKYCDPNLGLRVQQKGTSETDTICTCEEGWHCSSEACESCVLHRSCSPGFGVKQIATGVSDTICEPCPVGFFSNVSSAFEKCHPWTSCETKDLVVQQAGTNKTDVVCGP
notes: as for B1
Take B5: the binding result in experiment [2] is reported as “binds”.

B6: CD40 EC-Ig fusion protein, mutant E114N E117Q (Fc fusion)
chain: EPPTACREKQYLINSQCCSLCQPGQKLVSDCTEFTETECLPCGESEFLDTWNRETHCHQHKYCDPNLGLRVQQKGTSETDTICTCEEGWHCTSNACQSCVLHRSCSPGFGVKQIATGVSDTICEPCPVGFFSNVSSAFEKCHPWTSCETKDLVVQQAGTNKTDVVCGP
notes: COS7 culture supernatant; also called E114N E117Q double substitution mutant; not shown: human IgG Fc tail
For B6, in experiment [3], the binding result was “binds”.
